Measured values published in patent US12616673B2 (priority 2020, dated 2026).

Tested on: MV-4-11 cell line (FLT3-ITD+ AML)
Conditions: 10 nM R alone
Protocol: FIG. 1. Cells of the MV-4-11 cell line were treated with 10 nM ATRA (R), 1.5 nM Btz (B) and 500 nM ATO, alone or in combination as indicated. A After 72 hours from the treatment, cell death was assessed by the propidium iodide (PI) exclusion method, as measured by flow cytometer (n=6±SEM, one way ANOVA statistical analysis). Cells of the MOLM-13 cell line were treated and analysed in the same manner, except for the concentration of Btz, which in this case is 2.25 nM (n=6±SEM, one way ANOVA statistical analysis). […]
Cell counts were performed by optical microscope counting in a Burker chamber, excluding dead cells by Trypan Blue staining. Cell death was assessed by flow cytometry (Cytoflex, Beckman Coulter) after staining the cells with 2.5 μg/ml propidium iodide (Sigma-Aldrich, St. Louis, MO, USA), a dye that can only penetrate dead cells. Reactive oxygen species (ROS) were measured by flow cytometry after incubation with the ROS-specific dye CM-H2DCFDA (Thermo Fisher Scientific, Waltham, MA, USA) at a concentration of 2 μM, following the manufacturer's instructions. Nrf-2 fluorescence in the nuclei was assessed by flow cytometry after isolating the nuclei as described for the preparation of the cytosolic lysate for the Western blot. […]

CC1=C(/C=C/C(C)=C/C=C/C(C)=C/C(=O)O)C(C)(C)CCC1 [R, all-trans retinoic acid]
cell death, single agent: sensitive
